Measured values from US5093320A, “Novel peptides inhibiting the maturation of t-lymphocytes and the activity of macrophages, pharmaceutical compositions containing them and process for preparing same” (priority 1989, dated 1992).
At least one peptide structure holds a part that was inferred or is arguable (an end, a ring closure or a residue). Starred links: 1 amine or outer side, 2 acyl side, 3 side chain; linkers in the order of their positions; H or OH if unused. Positions of bridges follow the written chain, without caps; N, C: chain ends. Non-standard residues stand in square brackets, D forms with d. Residues, ends and D or L forms follow the SMILES beside them. Groups on a side chain read outwards from the residue. Chains are numbered I, II in the order given. *: point of attachment. Ethylenediamine = C(CN[*:2])N[*:1]; Aad = N[C@@H](CCCC(=O)O)C(=O)O; Orn = NCCC[C@H](N)C(=O)O; NHcHex = C1CCC(N*)CC1; CO = O=C([*:1])[*:2]; Sar = CNCC(=O)O

Assays:
resting macrophages = assay type: in vivo, CFLP (LATI) mice; conditions: mice, 1 mg/kg s.c. daily for 7 days; count of phagocytated yeast cells vs untreated animals
Protocol: The phagocytating capacity of resting macrophage cells was investigated on mice [J. Immunopharmacol. 4, 265 (1982-1983)]. […] After bleeding the animals, their peritonea were washed with 8 ml of PBS buffer solution (phosphate buffered saline, pH=7.2) each containing 10 IU of heparin. The cell suspension washed out from the peritoneum was made free of the erythrocytes by shocking with distilled water, then washed 3 times with PBS buffer solution. The sedimentation between two washings was achieved by centrifuging at 1000 rpm for 5 minutes. The concentration of each cell suspension was adjusted to 10^6 cell/ml and the suspension was settled for 30 minutes in a Boyden-chamber at 37° C. in an atmosphere containing 5% of carbon dioxide. Over the macrophages adhered to the glass wall, opsonized yeast was layered. After removing the non-phagocytated particles, those incorporated by the macrophages were counted in each cell. In Table 3, the percentage of decrease in the count of phagocytated yeast cells is given in relation to the macrophages isolated from the untreated animals as control.

antibody-producing cells = assay: Effect on the antibody-producing cells in newborn rats (plaque-forming cell count of splenocytes); assay type: in vivo, Wistar (LATI) rats; conditions: 1 mg/kg i.p. within 12 hours of birth, immunized day 14 with sheep erythrocytes, splenocytes 7 days later, vs untreated control
Protocol: This investigation was carried out with splenocytes obtained from newborn rats according to the method of Canningham (Handbook of Experimental Immunology, Ed. D. M. Weir, Vol. 2., Blackwell, Oxford-London, page 285, 1978). Twelve Wistar (LATI) rats arising from a single litter were intraperitoneally (i.p.) treated with 7.5 μg of test substance in a dose of 1 mg/kg within 12 hours of their birth. On the 14th day after birth, the animals were i.p. immunized by 0.5 ml of an 1% suspension of sheep erythrocytes, then bled by decapitation after 7 days. From the splenocytes obtained from the animals, a homogeneous suspension was prepared using sheep erythrocyte suspension and complement which was then put into a chamber suitable for obtaining a monocellular layer. The chambers closed with paraffin were incubated at 37° C. for 45 minutes. Around the antibody-producing splenocytes, lytic areas, the so-called plaques, were formed. Under the effect of treatment with the suppressing substances, the number of the plaque-forming cells (PFC) was decreased. The data summarized in Table 1 illustrate this percentage decrease calculated on the basis of the cells obtained from the untreated control animals.

[1] = tested on: late hypersensitive (DTH) response; assay type: in vivo, CFLP (LATI) mice; conditions: mice sensitized with oxazolone, 1 mg/kg i.p. on day 7; ear thickness 24 hours after antigen on day 10; vs saline control
Protocol: This test was carried out on male CFLP (LATI) mice weighing 25 to 30 g. At the beginning of the experiment, the mice were treated with a 3% solution of oxazolone in anhydrous ethanol by applying 20 μl of solution each on both ears and forepaws. […] The controls were treated only with saline. On day 10 of the experiment, 20 μl of an 2.5% olive oil solution of oxazolone were smeared on each ear of the animals. The thickness of the ears was twice measured, i.e. before and 24 hours after the administration of the antigen. The thickness was measured on both ears in the middle of the ear-lobes with an accuracy of 0.01 mm. The change was compared with the control group. The data concerning the suppression of the development of a DTH response are given as percentage values in Table 4.

[2] = tested on: primary antibody production; assay: Effect on the primary antibody production in newborn rats (haemagglutinin titre); assay type: in vivo, Wistar (LATI) rats; conditions: 1 mg/kg i.p. within 12 hours after birth, haemagglutinin titre on day 7 following immunization with sheep erythrocytes
Protocol: This study is based on the phenomenon of agglutination. A specific antiserum adheres to the surface of the antigen forming large granules which settle rapidly (agglutinate).
Newborn Wistar (LATI) rats were intraperitoneally (i.p.) treated with an 1 mg/kg dose of the test substance within 12 hours after birth. On the 14th day, the animals were i.p. immunized by 0.5 ml of an 1% suspension of sheep erythrocytes. On day 7 following the immunization, blood was taken retroorbitally, after 30 minutes the sera were separated by centrifuging and the haemagglutinin titre was determined according to the method of Takatsy [Acta Microbiol. Acad. Sci. Hung. 3, 191 (1955)]. From the mixed sera (50 μl) of two rats, halving dilutions were prepared in 12 steps. Each sample was given 25 /ul of a 2% suspension of sheep erythroxytes The mixture was incubated at 37° C. for one hour to evaluate the agglutination. The data are summarized in Table 2 which show the suppressing (inhibitory) effect of the compounds on the primary antibody production as a percentage value in relation to the untreated animals. Immunostimulating substances show just the opposite effect in this test.

SMILES | Change in the phagocytating capacity of resting macrophages, Change % (resting macrophages) [%] | Suppression of the antibody production, Change % (number of plaque-forming cells) (antibody-producing cells) | Suppression of the DTH response, Suppression % [1] [%] | Effect on the primary antibody production, Change in relation to the untreated control % [2]
CC(C)[C@H](NC(=O)[C@H](CC(=O)O)NC(=O)[C@H](CCCCNC(=O)NC1CCCCC1)NC(=O)[C@@H](N)CCCNC(=N)N)C(=O)O [(1), Arg-Lys(Chc)-Asp-Val] (H-RK([CO-NHcHex])DV-OH) | -11.2 | -14.4% | 39.1 | 
N=C(N)NCCC[C@H](N)C(=O)N[C@@H](CCCCNC(=O)NC1CCCCC1)C(=O)N[C@@H](CC(=O)O)C(=O)O [(2), Arg-Lys(Chc)-Asp] | -47.3 | -27.1% |  | 
CC(C)[C@H](NC(=O)[C@H](CC(=O)O)NC(=O)CN(C)C(=O)[C@@H](N)CCCNC(=N)N)C(=O)O [(3), Arg-Sar-Asp-Val] (H-R[Sar]DV-OH) | -10.5 | -25.5% |  | -17.9%
CN(CC(=O)N[C@@H](CC(=O)O)C(=O)O)C(=O)[C@@H](N)CCCNC(=N)N [(4), Arg-Sar-Asp] | -22.7 | -21.5% |  | -10.7%
CC(C)[C@H](NC(=O)[C@H](CC(=O)O)NC(=O)[C@H](CCCCN)NC(=O)[C@@H](N)CCCN)C(=O)O [(5), Orn-Lys-Asp-Val] (H-[Orn]KDV-OH) |  | -19.5% | 28.3 | 
NCCCC[C@H](NC(=O)[C@@H](N)CCCN)C(=O)N[C@@H](CC(=O)O)C(=O)O [(6), Orn-Lys-Asp] (H-[Orn]-Lys-Asp-OH) |  |  | 39.6 | 
CC(C)[C@H](NC(=O)[C@H](CCCC(=O)O)NC(=O)[C@H](CCCCN)NC(=O)[C@@H](N)CCCNC(=N)N)C(=O)O [(7), Arg-Lys-Aad-Val] (H-RK[Aad]V-OH) | -28.7 |  |  | 
N=C(N)NCCC[C@H](N)C(=O)N[C@@H](CCCCN)C(=O)N[C@@H](CCCC(=O)O)C(=O)O [(8), Arg-Lys-Aad] (H-Arg-Lys-[Aad]-OH) | -29.1 | -10.6% | 36.8 | 
N=C(N)NCCC[C@H](N)C(=O)N[C@@H](CCCCN)C(=O)N[C@@H](CC(=O)O)C(=O)NCCNC(=O)[C@H](CC(=O)O)NC(=O)[C@H](CCCCN)NC(=O)[C@@H](N)CCCNC(=N)N [(9), [Arg-Lys-Asp-NH-CH2 -]2] (I: H-Arg-Lys-Asp / II: H-Arg-Lys-Asp; linker I:C-II:C via Ethylenediamine) | -11.6 |  |  | 
CC(C)[C@H](NC(=O)[C@H](CC(=O)O)NC(=O)[C@H](CCCCN)NC(=O)[C@@H](N)CCCNC(=N)N)C(=O)NCCNC(=O)[C@H](CC(=O)O)NC(=O)[C@H](CCCCN)NC(=O)[C@@H](N)CCCNC(=N)N [(10)] (H-RKDV-{Ethylenediamine-Asp-Lys-Arg}) |  | -22.4% |  | 
CC(C)[C@H](NC(=O)[C@H](CC(=O)O)NC(=O)[C@H](CCCCN)NC(=O)[C@@H](N)CCCNC(=N)N)C(=O)NCCNC(=O)[C@@H](NC(=O)[C@H](CC(=O)O)NC(=O)[C@H](CCCCN)NC(=O)[C@@H](N)CCCNC(=N)N)C(C)C [(11), (ArgLysAspValNHCH2)2] (I: H-RKDV / II: H-RKDV; linker I:C-II:C via Ethylenediamine) | -16.5 | -21.2% | 27.0 | -14.9%
CC(C)C[C@H](NC(=O)[C@H](Cc1c[nH]cn1)NC(=O)[C@@H](N)CCCCN)C(N)=O [(20), Lys-His-Leu-NH2] (H-Lys-His-Leu-NH2) | -39.6 | -25.3% |  | 
N=C(N)NCCC[C@H](N)C(=O)N[C@@H](CCCCN)C(=O)N[C@@H](CC(=O)O)C(=O)O [A, ArgLysAsp, reference compound] (H-Arg-Lys-Asp-OH) |  | +68.6% |  | +13.7%
CC(C)[C@H](NC(=O)[C@H](CC(=O)O)NC(=O)[C@H](CCCCN)NC(=O)[C@@H](N)CCCNC(=N)N)C(=O)O [B, ArgLysAspVal, reference compound] (H-RKDV-OH) |  | +58.0% |  | +28.1%
